# Laboratory results published in the supplement of paper PMC8728848.
# The list shows a part of the results.
# B1: EULS2 M2 (Oryza sativa) (protein)
# chain: MVYCRANPNYAMTARNGAVVLAPANPKDEYQHWIKDMRWSTSIKDEEGYPAFALVNKATGQAIKHSLGQSHPVRLVPYNPEVMDESVLWTESRDVGNGFRCIRMVNNIYLNFDAFHGDKYHGGVRDGTDIVLWKLCEGDSQRWKIQPYYILEQKLISEEDLNSAVDHHHHHH
# Experiments:
# Assay in all cases: glycan array binding signal (z-score within array); higher = stronger binding
# Details in all cases: glycan notation: IUPAC condensed, linker removed
# [1] = target: Neu5Ac(a2-3)Gal(b1-4)GlcNAc(b1-6)GalNAc
# Summary of the method: (§1)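 Glycan array data were curated from 3228 arrays in the Consortium for Functional Glycomics database and kept only where the protein sequence was available. Glycan names were converted to IUPAC-condensed notation, and columns mapping to the same glycan were averaged. The binding signal is a within-array Z-score, averaged across arrays of the same protein sequence at different concentrations or buffers and across linkers. Negative Z-scores can be read as non-binding.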
# [2] = target: Neu5Ac(a2-3)Gal(b1-4)GlcNAc(b1-6)[Gal(b1-3)]GalNAc
# Summary of the method: as §1
# [3] = target: Neu5Ac(a2-3)Gal(b1-4)GlcNAc(b1-6)[Neu5Ac(a2-3)Gal(b1-3)]GalNAc
# Summary of the method: as §1
# [4] = target: Neu5Ac(a2-3)Gal(b1-4)GlcNAc6S
# Summary of the method: as §1
# [5] = target: Neu5Ac(a2-3)Gal(b1-4)[Fuc(a1-3)]GlcNAc
# Summary of the method: as §1
# [6] = target: Neu5Ac(a2-3)Gal(b1-4)[Fuc(a1-3)]GlcNAc(b1-2)Man
# Summary of the method: as §1
# [7] = target: Neu5Ac(a2-3)Gal(b1-4)[Fuc(a1-3)]GlcNAc(b1-3)Gal
# Summary of the method: as §1
# [8] = target: Neu5Ac(a2-3)Gal(b1-4)[Fuc(a1-3)]GlcNAc(b1-3)Gal(b1-4)GlcNAc
# Summary of the method: as §1
# [9] = target: Neu5Ac(a2-3)Gal(b1-4)[Fuc(a1-3)]GlcNAc(b1-3)Gal(b1-4)[Fuc(a1-3)]GlcNAc(b1-3)Gal(b1-4)[Fuc(a1-3)]GlcNAc
# Summary of the method: as §1
# [10] = target: Neu5Ac(a2-3)Gal(b1-4)[Fuc(a1-3)]GlcNAc(b1-3)GalNAc
# Summary of the method: as §1
# [11] = target: Neu5Ac(a2-3)Gal(b1-4)[Fuc(a1-3)]GlcNAc(b1-6)[Gal(b1-3)]GalNAc
# Summary of the method: as §1
# [12] = target: Neu5Ac(a2-3)Gal(b1-4)[Fuc(a1-3)]GlcNAc(b1-6)[Neu5Ac(a2-3)Gal(b1-3)]GalNAc
# Summary of the method: as §1
# [13] = target: Neu5Ac(a2-3)Gal(b1-4)[Fuc(a1-3)]GlcNAc6S
# Summary of the method: as §1
# [14] = target: Neu5Ac(a2-3)Gal6S(b1-4)GlcNAc
# Summary of the method: as §1
# [15] = target: Neu5Ac(a2-3)Gal6S(b1-4)[Fuc(a1-3)]GlcNAc
# Summary of the method: as §1
# Neu5Ac(a2-3)GalNAc = target: Neu5Ac(a2-3)GalNAc
# Summary of the method: as §1
# [16] = target: Neu5Ac(a2-3)GalNAc(b1-4)GlcNAc
# Summary of the method: as §1
# [17] = target: Neu5Ac(a2-3)[GalNAc(b1-4)]Gal(b1-4)Glc
# Summary of the method: as §1
# [18] = target: Neu5Ac(a2-3)[GalNAc(b1-4)]Gal(b1-4)GlcNAc
# Summary of the method: as §1
# [19] = target: Neu5Ac(a2-3)[GalNAc(b1-4)]Gal(b1-4)GlcNAc(b1-3)GalNAc
# Summary of the method: as §1
# [20] = target: Neu5Ac(a2-3)[Neu5Ac(a2-6)]GalNAc
# Summary of the method: as §1
# Neu5Ac(a2-6)Gal = target: Neu5Ac(a2-6)Gal
# Summary of the method: as §1
# [21] = target: Neu5Ac(a2-6)Gal(b1-3)GlcNAc(b1-3)[Gal(b1-4)GlcNAc(b1-6)]Gal(b1-4)Glc
# Summary of the method: as §1
# Neu5Ac(a2-6)Gal(b1-4)Glc = target: Neu5Ac(a2-6)Gal(b1-4)Glc
# Summary of the method: as §1
# [22] = target: Neu5Ac(a2-6)Gal(b1-4)GlcNAc
# Summary of the method: as §1
# [23] = target: Neu5Ac(a2-6)Gal(b1-4)GlcNAc(b1-2)Man
# Summary of the method: as §1
# [24] = target: Neu5Ac(a2-6)Gal(b1-4)GlcNAc(b1-2)Man(a1-3)Man(b1-4)GlcNAc(b1-4)GlcNAc
# Summary of the method: as §1
# [25] = target: Neu5Ac(a2-6)Gal(b1-4)GlcNAc(b1-2)Man(a1-3)[Gal(b1-4)GlcNAc(b1-2)Man(a1-6)]Man(b1-4)GlcNAc(b1-4)GlcNAc
# Summary of the method: as §1
# [26] = target: Neu5Ac(a2-6)Gal(b1-4)GlcNAc(b1-2)Man(a1-3)[GlcNAc(b1-2)Man(a1-6)]Man(b1-4)GlcNAc(b1-4)GlcNAc
# Summary of the method: as §1
# [27] = target: Neu5Ac(a2-6)Gal(b1-4)GlcNAc(b1-2)Man(a1-3)[GlcNAc(b1-4)][Neu5Ac(a2-6)Gal(b1-4)GlcNAc(b1-2)Man(a1-6)]Man(b1-4)GlcNAc(b1-4)GlcNAc
# Summary of the method: as §1
# [28] = target: Neu5Ac(a2-6)Gal(b1-4)GlcNAc(b1-2)Man(a1-3)[Man(a1-6)]Man(b1-4)GlcNAc(b1-4)GlcNAc
# Summary of the method: as §1
# [29] = target: Neu5Ac(a2-6)Gal(b1-4)GlcNAc(b1-2)Man(a1-3)[Neu5Ac(a2-3)Gal(b1-4)GlcNAc(b1-2)Man(a1-6)]Man(b1-4)GlcNAc(b1-4)GlcNAc
# Summary of the method: as §1
# [30] = target: Neu5Ac(a2-6)Gal(b1-4)GlcNAc(b1-2)Man(a1-3)[Neu5Ac(a2-6)Gal(b1-4)GlcNAc(b1-2)Man(a1-6)]Man(b1-4)GlcNAc(b1-4)GlcNAc
# Summary of the method: as §1
# [31] = target: Neu5Ac(a2-6)Gal(b1-4)GlcNAc(b1-2)Man(a1-3)[Neu5Ac(a2-6)Gal(b1-4)GlcNAc(b1-2)Man(a1-6)]Man(b1-4)GlcNAc(b1-4)[Fuc(a1-6)]GlcNAc
# Summary of the method: as §1
# [32] = target: Neu5Ac(a2-6)Gal(b1-4)GlcNAc(b1-2)Man(a1-6)Man(b1-4)GlcNAc(b1-4)GlcNAc
# Summary of the method: as §1
# [33] = target: Neu5Ac(a2-6)Gal(b1-4)GlcNAc(b1-2)Man(a1-6)[Gal(b1-4)GlcNAc(b1-2)Man(a1-3)]Man(b1-4)GlcNAc(b1-4)GlcNAc
# Summary of the method: as §1
# [34] = target: Neu5Ac(a2-6)Gal(b1-4)GlcNAc(b1-2)Man(a1-6)[GlcNAc(b1-2)Man(a1-3)]Man(b1-4)GlcNAc(b1-4)GlcNAc
# Summary of the method: as §1
# [35] = target: Neu5Ac(a2-6)Gal(b1-4)GlcNAc(b1-2)Man(a1-6)[Man(a1-3)]Man(b1-4)GlcNAc(b1-4)GlcNAc
# Summary of the method: as §1
# [36] = target: Neu5Ac(a2-6)Gal(b1-4)GlcNAc(b1-2)[Neu5Ac(a2-6)Gal(b1-4)GlcNAc(b1-4)]Man(a1-3)[GlcNAc(b1-4)][Neu5Ac(a2-6)Gal(b1-4)GlcNAc(b1-2)[Neu5Ac(a2-6)Gal(b1-4)GlcNAc(b1-6)]Man(a1-6)]Man(b1-4)GlcNAc(b1-4)GlcNAc
# Summary of the method: as §1
# [37] = target: Neu5Ac(a2-6)Gal(b1-4)GlcNAc(b1-2)[Neu5Ac(a2-6)Gal(b1-4)GlcNAc(b1-4)]Man(a1-3)[GlcNAc(b1-4)][Neu5Ac(a2-6)Gal(b1-4)GlcNAc(b1-4)Man(a1-6)]Man(b1-4)GlcNAc(b1-4)GlcNAc
# Summary of the method: as §1
# [38] = target: Neu5Ac(a2-6)Gal(b1-4)GlcNAc(b1-2)[Neu5Ac(a2-6)Gal(b1-4)GlcNAc(b1-6)]Man(a1-6)[Neu5Ac(a2-6)Gal(b1-4)GlcNAc(b1-2)Man(a1-3)][GlcNAc(b1-4)]Man(b1-4)GlcNAc(b1-4)GlcNAc
# Summary of the method: as §1
# [39] = target: Neu5Ac(a2-6)Gal(b1-4)GlcNAc(b1-3)Gal(b1-3)GlcNAc
# Summary of the method: as §1
# [40] = target: Neu5Ac(a2-6)Gal(b1-4)GlcNAc(b1-3)Gal(b1-4)GlcNAc
# Summary of the method: as §1
# [41] = target: Neu5Ac(a2-6)Gal(b1-4)GlcNAc(b1-3)Gal(b1-4)GlcNAc(b1-2)Man(a1-3)[Neu5Ac(a2-6)Gal(b1-4)GlcNAc(b1-3)Gal(b1-4)GlcNAc(b1-2)Man(a1-6)]GalNAc
# Summary of the method: as §1
# [42] = target: Neu5Ac(a2-6)Gal(b1-4)GlcNAc(b1-3)Gal(b1-4)GlcNAc(b1-3)Gal(b1-4)GlcNAc
# Summary of the method: as §1
binder,measurement,setting,value
B1,glycan array binding signal (z-score),[1],0.243
same,glycan array binding signal (z-score),[2],-0.583
same,glycan array binding signal (z-score),[3],-0.495
same,glycan array binding signal (z-score),[4],-0.616
same,glycan array binding signal (z-score),[5],-0.305
same,glycan array binding signal (z-score),[6],-0.102
same,glycan array binding signal (z-score),[7],-0.23
same,glycan array binding signal (z-score),[8],-0.283
same,glycan array binding signal (z-score),[9],-0.216
same,glycan array binding signal (z-score),[10],-0.545
same,glycan array binding signal (z-score),[11],-0.019
same,glycan array binding signal (z-score),[12],2.53
same,glycan array binding signal (z-score),[13],-0.153
same,glycan array binding signal (z-score),[14],-0.449
same,glycan array binding signal (z-score),[15],-0.308
same,glycan array binding signal (z-score),Neu5Ac(a2-3)GalNAc,-0.307
same,glycan array binding signal (z-score),[16],-0.223
same,glycan array binding signal (z-score),[17],-0.362
same,glycan array binding signal (z-score),[18],-0.347
same,glycan array binding signal (z-score),[19],-0.241
same,glycan array binding signal (z-score),[20],-0.612
same,glycan array binding signal (z-score),Neu5Ac(a2-6)Gal,-1.17
same,glycan array binding signal (z-score),[21],-0.511
same,glycan array binding signal (z-score),Neu5Ac(a2-6)Gal(b1-4)Glc,-0.175
same,glycan array binding signal (z-score),[22],-0.4
same,glycan array binding signal (z-score),[23],-0.673
same,glycan array binding signal (z-score),[24],0.27
same,glycan array binding signal (z-score),[25],-0.121
same,glycan array binding signal (z-score),[26],0.47
same,glycan array binding signal (z-score),[27],-0.19
same,glycan array binding signal (z-score),[28],1.57
same,glycan array binding signal (z-score),[29],-0.231
same,glycan array binding signal (z-score),[30],0.002
same,glycan array binding signal (z-score),[31],-0.091
same,glycan array binding signal (z-score),[32],-0.423
same,glycan array binding signal (z-score),[33],-0.702
same,glycan array binding signal (z-score),[34],0.472
same,glycan array binding signal (z-score),[35],0.405
same,glycan array binding signal (z-score),[36],0.292
same,glycan array binding signal (z-score),[37],-0.758
same,glycan array binding signal (z-score),[38],-0.066
same,glycan array binding signal (z-score),[39],-0.207
same,glycan array binding signal (z-score),[40],-0.214
same,glycan array binding signal (z-score),[41],-0.24
same,glycan array binding signal (z-score),[42],-0.404
